# Lines with a small IC50 respond at low doses; fits outside the tested doses are given as limits. For AUC the same curve is integrated over the 256-fold range of doses and scaled to a fraction; the more sensitive the line, the further below 1. For part of these data: The top dose, if marked as inferred, comes from the curve model; the source does not state it. For part of these data: An entry number marks a drug with two screens in the source, which often give different values.
# Legend:
# Experiment in all cases: Viability of human cancer cell lines after 72 h of drug (GDSC screen)
# AZD-0530 = compound: CN1CCN(CCOc2cc(OC3CCOCC3)c3c(Nc4c(Cl)ccc5c4OCO5)ncnc3c2)CC1 [AZD-0530]; settings: top dose 2 µM
# Protocol: (§1)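 Human cancer cell lines in 384-well plates, medium with 10% serum, drug for 72 h over a 256-fold dose range (nine 2-fold or five 4-fold steps up to the top dose). Adherent lines were fixed and stained with the nucleic acid dye Syto60, suspension lines read with resazurin; signal relative to control wells, capped at 0 and 100%. One two-parameter sigmoid per drug and line, fitted in a mixed model over all curves with the slope shared within a line.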
# TPCA-1 = compound: NC(=O)Nc1sc(-c2ccc(F)cc2)cc1C(N)=O [TPCA-1]; settings: top dose 20 µM
# Protocol: as §1
# PLX4720 = compound: CCCS(=O)(=O)Nc1ccc(F)c(C(=O)c2c[nH]c3ncc(Cl)cc23)c1F [PLX4720]; settings: top dose 10 µM
# Protocol: as §1
# Epothilone B = compound: C/C(=C\c1csc(C)n1)[C@@H]1C[C@@H]2O[C@]2(C)CCC[C@H](C)[C@H](O)[C@@H](C)C(=O)C(C)(C)[C@@H](O)CC(=O)O1 [Epothilone B]; settings: top dose 0.032 µM; top dose inferred
# Protocol: as §1
# Y-39983 = compound: C[C@@H](N)c1ccc(C(=O)Nc2ccnc3[nH]ccc23)cc1 [Y-39983]; settings: top dose 20 µM; top dose inferred
# Protocol: as §1
# PHA-793887 = compound: CC(C)CC(=O)Nc1n[nH]c2c1CN(C(=O)C1CCN(C)CC1)C2(C)C [PHA-793887]; settings: top dose 10.24 µM
# Protocol: as §1
# Pyrimethamine = compound: CCc1nc(N)nc(N)c1-c1ccc(Cl)cc1 [Pyrimethamine]; settings: top dose 20 µM; top dose inferred
# Protocol: as §1
# [1] = screen: GDSC drug entry 1371, top dose inferred
Cell Line,AUC (AZD-0530),IC50 (AZD-0530),AUC (TPCA-1),IC50 (TPCA-1),AUC (PLX4720; screen: GDSC drug entry 1036),IC50 (PLX4720; screen: GDSC drug entry 1036),AUC (PLX4720; [1]),IC50 (PLX4720; [1]),AUC (Epothilone B),IC50 (Epothilone B),AUC (Y-39983),IC50 (Y-39983),AUC (PHA-793887),IC50 (PHA-793887),AUC (Pyrimethamine),IC50 (Pyrimethamine)
"NCI-H345 (small cell lung carcinoma, suspension)",0.988,> 2 µM,0.974,> 20 µM,0.985,> 10 µM,0.989,> 10 µM,0.986,> 0.032 µM,0.99,> 20 µM,0.924,> 10.2 µM,0.984,> 20 µM
"NCI-H510A (small cell lung carcinoma, semi-adherent)",0.958,> 2 µM,0.852,13.6 µM,0.985,> 10 µM,,,0.782,0.0122 µM,0.945,> 20 µM,0.808,4.77 µM,0.965,> 20 µM
"NCI-H524 (small cell lung carcinoma, suspension)",0.949,> 2 µM,0.881,17.2 µM,0.974,> 10 µM,0.99,> 10 µM,0.803,0.0139 µM,0.99,> 20 µM,0.498,0.633 µM,0.911,> 20 µM
"NCI-H526 (small cell lung carcinoma, suspension)",0.99,> 2 µM,0.761,6.82 µM,0.988,> 10 µM,0.989,> 10 µM,0.712,0.00769 µM,0.974,> 20 µM,0.371,0.287 µM,0.796,8.91 µM
"NCI-H716 (large intestine, suspension)",0.974,> 2 µM,0.738,7.29 µM,,,0.959,> 10 µM,0.979,> 0.032 µM,0.964,> 20 µM,0.926,> 10.2 µM,0.935,> 20 µM
"NCI-H720 (lung carcinoid, suspension)",0.971,> 2 µM,0.98,> 20 µM,0.992,> 10 µM,0.989,> 10 µM,0.989,> 0.032 µM,0.986,> 20 µM,0.991,> 10.2 µM,0.897,> 20 µM
"NCI-H747 (large intestine, adherent)",0.856,> 2 µM,0.848,> 20 µM,0.982,> 10 µM,0.978,> 10 µM,0.522,0.00233 µM,0.914,> 20 µM,0.745,3.84 µM,0.951,> 20 µM
"NCI-H847 (small cell lung carcinoma, adherent)",0.993,> 2 µM,0.42,0.788 µM,0.981,> 10 µM,0.991,> 10 µM,0.336,0.000774 µM,0.756,5.68 µM,0.305,0.206 µM,0.946,> 20 µM
"NCI-H1092 (small cell lung carcinoma, suspension)",0.985,> 2 µM,0.932,> 20 µM,0.986,> 10 µM,0.974,> 10 µM,0.944,> 0.032 µM,0.941,> 20 µM,0.89,> 10.2 µM,0.979,> 20 µM
"NCI-H1155 (large cell lung carcinoma, suspension)",0.993,> 2 µM,0.858,12 µM,0.954,> 10 µM,0.981,> 10 µM,0.923,> 0.032 µM,0.953,> 20 µM,0.993,> 10.2 µM,0.979,> 20 µM
"NCI-H1299 (large cell lung carcinoma, adherent)",0.935,> 2 µM,0.861,> 20 µM,,,0.898,> 10 µM,0.416,0.00111 µM,0.959,> 20 µM,0.983,> 10.2 µM,0.931,> 20 µM
"NCI-H1304 (small cell lung carcinoma, suspension)",0.984,> 2 µM,0.987,> 20 µM,0.937,> 10 µM,0.986,> 10 µM,0.788,0.0152 µM,0.981,> 20 µM,0.865,> 10.2 µM,0.904,> 20 µM
"NCI-H1355 (lung adenocarcinoma, adherent)",0.916,> 2 µM,0.961,> 20 µM,0.969,> 10 µM,0.971,> 10 µM,0.423,0.00112 µM,0.978,> 20 µM,0.977,> 10.2 µM,0.953,> 20 µM
"NCI-H1395 (lung adenocarcinoma, adherent)",0.927,> 2 µM,0.931,> 20 µM,0.978,> 10 µM,0.966,> 10 µM,0.932,> 0.032 µM,0.953,> 20 µM,0.888,> 10.2 µM,0.854,> 20 µM
"NCI-H1417 (small cell lung carcinoma, suspension)",0.962,> 2 µM,0.903,> 20 µM,0.86,> 10 µM,0.888,> 10 µM,0.765,0.0139 µM,0.895,> 20 µM,0.793,5.68 µM,0.913,> 20 µM
"NCI-H1581 (large cell lung carcinoma, semi-adherent)",0.988,> 2 µM,0.921,> 20 µM,,,0.989,> 10 µM,0.887,0.0306 µM,0.978,> 20 µM,0.789,4.13 µM,0.973,> 20 µM
"NCI-H1648 (lung adenocarcinoma, adherent)",0.64,0.312 µM,0.905,> 20 µM,0.853,8.54 µM,0.976,> 10 µM,0.41,0.00111 µM,0.985,> 20 µM,0.728,2.98 µM,0.979,> 20 µM

# From the supplement of paper PMC4967469
